Hit rate of the full screen: of about 310,000 compounds, about 2,200 (0.71%) showed an effect of 50% or more. The effect is printed as a negative number. The list shows a part of the results.
Molecular target: human ether-à-go-go-related gene (hERG) potassium channel (human, UniProt Q12809)
Experiment: primary screen, population patch clamp on CHO cells stably expressing hERG

human ether-à-go-go-related gene (hERG) potassium channel, sequence (Q12809 whole entry, looked up): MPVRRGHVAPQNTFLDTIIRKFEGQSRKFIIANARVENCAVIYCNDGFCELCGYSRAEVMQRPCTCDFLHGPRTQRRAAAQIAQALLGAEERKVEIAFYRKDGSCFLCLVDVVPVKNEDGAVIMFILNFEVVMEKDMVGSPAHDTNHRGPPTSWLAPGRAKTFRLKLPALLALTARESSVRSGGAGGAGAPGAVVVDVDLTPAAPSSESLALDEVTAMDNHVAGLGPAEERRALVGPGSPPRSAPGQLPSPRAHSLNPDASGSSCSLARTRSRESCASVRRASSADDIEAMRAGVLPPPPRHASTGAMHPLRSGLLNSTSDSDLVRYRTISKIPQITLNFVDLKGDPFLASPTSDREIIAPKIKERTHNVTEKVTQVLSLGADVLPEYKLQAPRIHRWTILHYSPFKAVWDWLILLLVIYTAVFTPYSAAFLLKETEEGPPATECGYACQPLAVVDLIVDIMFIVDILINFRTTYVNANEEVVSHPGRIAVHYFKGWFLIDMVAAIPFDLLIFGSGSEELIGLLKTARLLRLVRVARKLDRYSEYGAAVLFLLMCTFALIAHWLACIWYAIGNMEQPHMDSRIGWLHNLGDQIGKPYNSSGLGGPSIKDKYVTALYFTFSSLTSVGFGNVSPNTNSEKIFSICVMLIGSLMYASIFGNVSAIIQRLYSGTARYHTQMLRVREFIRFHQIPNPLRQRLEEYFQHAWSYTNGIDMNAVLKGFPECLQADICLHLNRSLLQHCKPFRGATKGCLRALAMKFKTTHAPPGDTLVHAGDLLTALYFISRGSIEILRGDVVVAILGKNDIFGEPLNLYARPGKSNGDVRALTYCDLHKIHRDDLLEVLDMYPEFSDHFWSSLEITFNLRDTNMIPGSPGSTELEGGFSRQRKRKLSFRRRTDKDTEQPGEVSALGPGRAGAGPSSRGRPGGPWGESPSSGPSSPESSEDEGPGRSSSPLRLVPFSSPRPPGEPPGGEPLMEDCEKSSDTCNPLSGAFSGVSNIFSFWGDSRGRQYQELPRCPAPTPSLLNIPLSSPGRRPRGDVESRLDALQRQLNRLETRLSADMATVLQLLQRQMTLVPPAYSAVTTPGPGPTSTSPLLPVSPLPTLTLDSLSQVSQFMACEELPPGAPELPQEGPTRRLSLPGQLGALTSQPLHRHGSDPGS

Structure (SMILES)	hERG current change (%, negative = inhibition) at 1uM
CCOC(=O)CCCCC(=O)NC(CO)C(=O)NC (centres unmarked)	8.11%
CC1CCCN(Cc2cnc(Cl)s2)C1 (centres unmarked)	14.1%
O=C(N=C1c2ccccc2CN1c1ccc(F)c(F)c1)c1cccnc1	8.47%
Br.N=c1n(CC(=O)c2cccc([N+](=O)[O-])c2)c2ccccc2n1Cc1ccccc1	-2.49%
N#C/C(=C(/O)c1cc2ccccc2o1)c1nc2ccccc2s1	11.2%
CCCN1CCC(NC(=O)Nc2cccc3ccccc23)CC1	7.09%
O=C(c1ccccc1Cl)N1CCNCC1	15.9%
NCCNc1ccc(C(=O)N2c3ccccc3Sc3ccccc32)cc1[N+](=O)[O-]	11.6%
COc1cc(/C=N/NC(=O)C2CC(=O)N(c3ccc(C)cc3)C2)cc(OC)c1OC (centres unmarked)	15.5%
O=C(Nc1cccc2ccccc12)c1onc2c1CCCC2	6.48%
Cc1ccccc1COC(=O)c1nn(-c2ccccc2)nc1N	8.78%
COc1ccc(-c2cc(CC3(C(=O)O)CCN(C(=O)OC(C)(C)C)CC3)on2)c(OC)c1	9%
CCOC(=O)c1cc(C)sc1NC(=O)CCC(=O)O	-0.629%
CC(C(=O)O)N1C(=O)C2C3CC(C2C1=O)C1C(c2ccccc2)c2sc(=O)[nH]c2SC31 (centres unmarked)	16.1%
CC(C)(C)c1ccc(C(=O)C2CCCN(Cc3ccon3)C2)cc1 (centres unmarked)	14.6%
COCCOC(=O)C1=C(C)NC(=O)N(C(C)=O)C1c1ccc(Cl)cc1 (centres unmarked)	11.7%
Fc1ccc(C2CC(c3ccccc3)n3ncnc3N2)cc1 (centres unmarked)	-1.41%
Cc1cnc(NC(=O)c2cccs2)s1	12.9%
CCOc1ccc(C2C(C(=O)c3ccco3)=C(O)C(=O)N2CCCn2ccnc2)cc1OCC (centres unmarked)	10.1%
CN(CC(=O)Nc1ccccc1Cl)C(=O)COC(=O)CN1C(=O)NC2(CCCC2)C1=O	15.3%
CCC(=O)NNc1nc2c(Cl)cccc2s1	8.56%
CCCc1nc2oc3ccccc3c(=O)c2c(=O)n1-c1ccc(C)cc1	13.9%
O=S(=O)(c1ccc(F)cc1)N1CCN(S(=O)(=O)c2cc(F)ccc2F)CC1	7.97%

Structure (SMILES)	hERG current change (%, negative = inhibition) at 1uM
COc1ccccc1-n1cnnc1SC(C)C(=O)Nc1ccc(NC(C)=O)cc1 (centres unmarked)	7.06%
Cc1cccc(OCC(=O)Nc2cccc(O)c2)c1	2.59%
COc1ccc(OC)c(C(=O)c2oc3ccccc3c2NC(C)=O)c1	-1.97%
COc1cc(/C=C2/SC(=S)N(Cc3ccccc3)C2=O)cc(Cl)c1O	6.86%
COc1ccc(Cl)cc1C(=O)NNC(=O)c1n[nH]c2ccccc12	9.2%
CCN(CC)c1nc2ccccc2[nH]1.Cl	6.44%
CCCSc1nnc2[nH]c(=O)cc(N)n12	9.95%
COCc1ccc(C(=O)OC(C)C(=O)Nc2c(C)n(C)n(-c3ccccc3)c2=O)cc1 (centres unmarked)	6.77%
Clc1cccc(CSc2nccn2-c2ccccc2)c1	0.457%
COc1ccc(-c2noc(CN(C)C(=O)c3ccoc3C)n2)cc1OC	11.2%
CCN1C(=O)/C(=C\N(C)C)S/C1=N\S(=O)(=O)c1ccccc1	4.97%
Cc1cc(C)n(C(=O)CN2C(=O)c3ccccc3C2=O)n1	11.5%
CC(C)C(=O)O/N=C1\CCS(=O)(=O)c2sccc21	11.6%
COc1ccc2c(c1)C(NC(C)=O)C(=O)N2C (centres unmarked)	-2.92%
CCO/C(=C/c1sc2ccc(OC)cc2[n+]1CCCS(=O)(=O)[O-])CC	9.05%
Cn1c(Br)nc2c1c(=O)n(CC(O)COc1ccccc1)c(=O)n2C (centres unmarked)	9.46%
CCN(C(=O)Cn1c(=O)oc2ccccc21)C1CCS(=O)(=O)C1 (centres unmarked)	-1.04%
CN1CC(=O)N2Cc3[nH]c4ccccc4c3C[C@H]2C1=O	14.8%
COc1ccc(NC(=O)CN2C(=O)c3cccc4cccc2c34)cc1OC	21.1%
CCOC(=O)CCC(NC(=O)CCCCCCCC(=O)NC(CCC(=O)OCC)C(=O)OCC)C(=O)OCC (centres unmarked)	4.36%
CCOC(=O)C1CCCN(C(=O)CCc2ccccc2)C1 (centres unmarked)	-6.13%
Cc1ccc(C(=O)NC(=S)NNC(=O)c2cccc([N+](=O)[O-])c2)cc1	23.1%
CCOC(=O)N1CCN(C(=O)CSc2nnc(-c3ccc(C(C)(C)C)cc3)o2)CC1	11.5%

Structure (SMILES)	hERG current change (%, negative = inhibition) at 1uM
CS(=O)(=O)N(CC(=O)N1CCc2ccccc2C1)c1ccccc1Br	11.7%
CC(CCc1ccccc1)NC(=O)COC(=O)C1=COCCO1 (centres unmarked)	12.9%
COc1cc2ccccc2cc1C(=O)Nc1ccc(N2CCOCC2)cc1	14.3%
CN(C)c1ccc(/C=N/N(Cc2ccccc2)c2ccccc2)cc1	11.4%
COc1ccc(CNC(=S)Nc2ccc(S(N)(=O)=O)cc2)cc1	4.13%
COc1ccc(S(=O)(=O)N2CCSCC2)cc1	7.1%
CN(C)C(=O)Cn1cnc2c(cnn2-c2ccccc2Cl)c1=O	-4.2%
CSc1cc(-c2ccccc2)n(C)c(=O)c1C#N	16.5%
CCN(Cc1ccncc1)C(=O)c1cc(COc2c(C)cccc2C)on1	-63.1%
Cc1nc(/N=C(\N)N(C)C)[nH]c(=O)c1C	5.78%
COc1ccccc1CN(C)C(=O)CN1CCN(CC(=O)Nc2ccccc2Cl)CC1	-4.92%
CCN(CC)CCC(c1ccc(N(C)C)cc1)c1c(OC)cc(OC)c2ccc(=O)oc12 (centres unmarked)	4.07%
Cn1ncc(Cl)c1C(=O)N1CCN(c2ccc(Cl)c(Cl)c2)CC1	8.62%
O=C1c2ccccc2C(=O)N1CSc1nnc(Nc2ccccc2)s1	11.6%
CC(=O)Nc1cccc(NC(=O)C(F)(F)F)c1	18.2%
O=S(=O)(c1ccc(F)c(F)c1)N1CCN(Cc2ccc3c(c2)OCO3)CC1	-9.04%
CC(C)N(C(=O)NC(=O)Nc1ccc(S(=O)(=O)N2CCCC2)cc1)S(C)(=O)=O	0.333%
CCOc1ccc(C(=O)Nc2ccc(N3CCCC3)cc2)cc1	13.1%
CC1(C)Oc2ccc3ccc(=O)oc3c2-c2cn[nH]c21	10.1%
COc1ccc(C)cc1S(=O)(=O)N1CCc2ccccc2C1	8.62%
CN(C)CCn1c2ccccc2c2nc3ccc([N+](=O)[O-])cc3cc21	10.8%
O=S(=O)(c1ccc(N2CCOCC2)cc1)N1CCOCC1	6.18%
Cc1cc(Oc2ccccc2)nc(SCC(N)=O)n1	8.03%

Structure (SMILES)	hERG current change (%, negative = inhibition) at 1uM
CC1CCN(C(=O)c2[nH]cnc2C(=O)NCc2ccccc2)CC1	10.8%
COc1cc(/C=C2\CCCc3c2nc2ccccc2c3C(=O)O)cc([N+](=O)[O-])c1O	17.4%
COc1cccc(C(=O)Nc2ccc(NC(=O)C3CC3)nc2)c1	12.9%
O=C(Cc1cccs1)NCCc1ccc(Cl)cc1	-17.5%
CC(=O)NC(CC(=O)O)C(=O)O (centres unmarked)	19.4%
N#Cc1c(-c2ccccc2)nc(SCC(=O)Nc2ccccc2F)[nH]c1=O	14.7%
O=C(CSCc1ccccc1)Nc1ccc(F)c(F)c1	13.6%
COc1ccccc1CCNC(=O)CSc1nc(=O)[nH]c2c1CCC2	-18.3%
COc1cc(/C=C(\C#N)c2nc(-c3cc4ccccc4oc3=O)cs2)ccc1O	8.7%
CN1C2CCC1C(COC(=O)c1ccccc1)C(O)C2 (centres unmarked)	8.16%
COc1ccc([N+](=O)[O-])cc1NS(=O)(=O)c1cc(C(=O)N2CCN(C)CC2)ccc1OC	4.81%
COc1cc(NC(=O)C2=C(C)OCCS2)c(Cl)cc1C(=O)NCCN1CCN(C)CC1	-11.6%
CC(CNC(=O)c1ccc(OC2CCN(Cc3ccccn3)CC2)cc1)c1ccccc1 (centres unmarked)	-38.8%
COc1ccc(C(=O)N2c3ccccc3C=CC2C#N)cc1 (centres unmarked)	5.61%
COc1cc(Cl)c(S(=O)(=O)NCCN2CCOCC2)cc1Cl	11.8%
Cc1ccc(C(=O)CNc2nc3c(c(=O)[nH]c(=O)n3C)n2Cc2ccccc2)cc1	7.44%
CCOC(=O)c1ccccc1NS(=O)(=O)c1ccccc1	-0.965%
CCN1CCN(CC(=O)Nc2c(OC)cccc2OC)CC1.O=C(O)C(=O)O	4.34%
CN1CCN(CC(=O)N2c3ccccc3C(C)(c3ccccc3)CC2(C)C)CC1 (centres unmarked)	-0.562%
CCOC(=O)c1cnc2nc(N3CCOCC3)nn2c1N	2.83%
O=C(NCc1ccccn1)c1ccc(Cn2c(=S)[nH]c3ccc(Br)cc3c2=O)cc1	12%
CC(C)(C)c1ccc(S(=O)(=O)N2C=CC(C(F)(F)F)=NCC2)cc1	6.78%
CC(=O)NCC1CCCN(c2nc3nonc3nc2N(C)Cc2ccccc2)C1 (centres unmarked)	1.67%

Source: paper PMC4336329 (PLoS ONE, 2015)
